# Screen size: about 300,000 compounds; about 22,000 (7.3%) were called active. Inconclusive means that the source gave no clear call. Such entries were picked first, then a sample of the others. No stated cut-off is given here; in the data, active means activity score below about -60%; inconclusive means mostly about -28% to -61%; inactive means positive scores.
# Assay: Activators via SNCA 5'UTR binding, MLPCN (AID 1814)
# Conditions: alpha-synuclein 5'UTR reporter, activators screen; hits give low values; tested at 7.5 µM
row,SMILES,activity score
1,Cc1ccc(Cc2cnc(NC(=O)c3cccs3)s2)cc1,active: -91.2%
2,O=C(CSc1nc2nc(-c3cccs3)cc(C(F)(F)F)c2c(=O)[nH]1)C(F)(F)F,inconclusive: -59.3%
3,O=C(/C=C/c1cccs1)c1cc(Cl)ccc1O,inconclusive: -54.3%
4,c1cncc(-c2nc(-c3cccs3)cs2)c1,inconclusive: -51.9%
5,Cc1ccc(Cn2ccc(NC(=O)c3cc(-c4cccs4)on3)n2)cc1,inconclusive: -50%
6,Oc1c(CN2CCN(c3ccc(F)cc3)CC2)cc(Cl)c2cccnc12,inactive: 69.6%
7,O=C(Nc1ccc(NC(=O)c2sc3ccccc3c2Cl)cc1Cl)c1ccco1,inconclusive: -58.6%
8,COc1cc(OC)cc(-c2cc3nc(C)c(CCC(=O)NCc4ccccc4)c(C)n3n2)c1,inactive: 75%
9,Clc1cccc(-c2nc(NCCN3CCOCC3)c3ccccc3n2)c1,inconclusive: -36.5%
10,COc1ccc(-c2csc(Nc3ccc(O)cc3)n2)cc1,active: -170%
11,CC1(C)CC(=O)c2cc(OCC(=O)NCCCN3CCN(c4ccc(F)cc4)CC3)ccc2O1,inconclusive: -47.4%
12,CCSc1nc2ccc(OC)cc2cc1C#N,inconclusive: -45.6%
13,Cn1ccnc1SCC(=O)c1cccc(C(F)(F)F)c1,inconclusive: -58.2%
14,COc1ccc(C(=O)NC(=S)NNC(=O)Cc2cccs2)cc1,inconclusive: -42.2%
15,Cc1cc(=O)[nH]c(N/N=C/c2ccccn2)n1,inactive: 73.8%
16,Cc1ccc(/C=C2\SC(=S)N(CCCC(=O)Nc3ccc(O)cc3)C2=O)cc1,inactive: 104%
17,CN1CCN(/N=C/c2ccc(N(c3ccccc3)c3ccccc3)cc2)CC1,inactive: 70.6%
18,CCCCSc1nnc(-c2c[nH]c3ccccc23)n1C,active: -135%
19,Cc1cc(N2CCN(c3nc4ccccc4s3)CC2)n2ncnc2n1,inconclusive: -41.9%
20,NS(=O)(=O)c1ccc(NC(=O)c2ccc3c(c2)CCCC3)cc1,inconclusive: -52.9%

row,SMILES,activity score
1,COc1ccc(-c2nsc(SCC(=O)NCc3ccc4c(c3)OCO4)n2)cc1,inconclusive: -45.3%
2,CC(=O)C(Sc1nccc(-c2cccs2)n1)C(C)=O,inconclusive: -60.7%
3,CCN1CCN(Cc2ccc(NC(=O)c3cc(NC(=O)c4cc(-c5ccc(OC)cc5)n[nH]4)cc(OC)c3)cc2C(F)(F)F)CC1,inactive: 106%
4,O=C(O)c1cccc(N/N=C(\N=Nc2ccccc2)c2ccccc2)c1,inconclusive: -60.8%
5,COc1cc(NC(=O)CCC(=O)Nc2ccc3nc(N4CCOCC4)cc(C)c3c2)cc(OC)c1OC,inconclusive: -49.3%
6,CCOC(=O)c1cnc(SCc2ccc(C(C)(C)C)cc2)nc1N,inconclusive: -38.6%
7,CCCc1ccc2oc(C(=O)N(C)Cc3nccs3)c(C)c2c1,active: -149%
8,O=C(Nc1ccccc1Cl)c1ccc(Cl)cc1Cl,inconclusive: -60.7%
9,Cc1ncc(CO)c(/C=N/Nc2ccc(C(F)(F)F)cn2)c1O,inactive: 87.6%
10,Cc1cc(C)c(S(=O)(=O)Nc2ccc3c4c(cccc24)CC3)c(C)c1,inactive: 106%
11,Clc1ccc(OCc2noc(-c3ccsc3)n2)c(Cl)c1,active: -170%
12,C[C@@H]1C=CC(=O)O[C@@H]1c1ccc(C(F)(F)F)cc1,inconclusive: -60.4%
13,Cc1cc(NC(=O)C2CCCN(S(=O)(=O)c3c(C)noc3C)C2)no1 (stereo not given),inconclusive: -58.8%
14,Cc1ccc(Cc2nc(-c3cccnc3)no2)cc1,inconclusive: -37.2%
15,CC1CCc2c(sc3ncn(Cc4ccc(C(=O)O)cc4)c(=O)c23)C1 (stereo not given),inconclusive: -55.7%
16,N=c1n(Cc2ccccc2)c2ccccc2n1CC(O)COc1ccc(Cl)cc1Cl (stereo not given),inactive: 90.1%
17,CCOC(=O)c1ccc(N=Nc2c(C)c(C#N)c(O)[nH]c2=O)cc1,active: -73.7%
18,COc1ccc(-c2oc(NC(=O)c3ccc(C)cc3)c(C#N)c2-c2ccc(OC)cc2)cc1,inconclusive: -55.9%
19,O=C(c1ccc(COc2ccccc2[N+](=O)[O-])o1)N1CCCCC1,inconclusive: -61.5%
20,Cc1cc(/C=c2/sc3nc4ccccc4n3c2=O)c(C)n1-c1ccccn1,inactive: 87.9%

row,SMILES,activity score
1,CCOc1ccc(NC(=O)CN(C)c2ccc(S(=O)(=O)N(C(C)C)C(C)C)cn2)cc1OCC,inactive: 60.8%
2,Cn1nnnc1SCc1nc2ccccc2s1,inconclusive: -56.8%
3,O=C(/C=C/c1c(Cl)cccc1Cl)Nc1ccncc1,active: -293%
4,Cn1cc(/C=N/n2cnc3scc(-c4ccc(Cl)cc4)c3c2=O)c2ccccc21,inactive: 87%
5,Cc1cccc(N/N=C/c2ccncc2)c1,active: -109%
6,O=C(O)CCSc1nnc(-c2ccc3c(c2)OCO3)o1,inactive: 66.7%
7,O=c1oc2ccccc2cc1-c1cn(-c2ccccc2)c(=S)[nH]1,inactive: 119%
8,Oc1ccc(-c2cn3ccccc3n2)cc1O,active: -124%
9,C/C(Cl)=C\Cn1c(O)c(N=NC(N)=S)c2cc(Br)ccc21,inactive: 70.1%
10,Cc1nc(-c2cc(-c3ccc(Cl)cc3)no2)cs1,active: -137%
11,Cc1ccc(NC(=O)CSc2nc3ccccc3c3nc4ccccc4n23)cc1,inactive: 110%
12,CC(=O)c1sc(N/N=C\c2ccc(C)cc2)nc1C,inconclusive: -59%
13,COC(=O)c1ccc(C(=O)NC2CCCc3c2cnn3-c2ccc(C)c(C)c2)cc1 (stereo not given),inactive: 104%
14,O=C(c1c(F)cccc1F)N1CCCC(c2nc(-c3ccc(Cl)cc3)no2)C1 (stereo not given),inconclusive: -32.7%
15,Cc1cc(C)c2c(N)c3cccc(C)c3nc2n1,inconclusive: -11.5%
16,N/C(=N\OC(=O)c1ccc2ccccc2c1)c1ccccn1,inactive: 95.5%
17,CC(C)=CC(=O)Nc1ccc2c(c1)OCO2,inconclusive: -57.1%
18,c1ccc(-c2ncc(-c3ccn[nH]3)s2)cc1,inconclusive: -51.8%
19,O=C(Oc1ccc(NC2=C(Cl)C(=O)c3ccccc3C2=O)cc1)c1ccc([N+](=O)[O-])cc1,active: -109%
20,O=C(Nc1nc(-c2ccccc2)cs1)c1cccc([N+](=O)[O-])c1,inconclusive: -52.2%

# Source: PubChem BioAssay AID1814 (Broad Institute, 2009)
